First the molecules themselves.
B1: GPR68, Q15743 (parent)
chain: MGNITADNSSMSCTIDHTIHQTLAPVVYVTVLVVGFPANCLSLYFGYLQIKARNELGVYLCNLTVADLFYICSLPFWLQYVLQHDNWSHGDLSCQVCGILLYENIYISVGFLCCISVDRYLAVAHPFRFHQFRTLKAAVGVSVVIWAKELLTSIYFLMHEEVIEDENQHRVCFEHYPIQAWQRAINYYRFLVGFLFPICLLLASYQGILRAVRRSHGTQKSRKDQIQRLVLSTVVIFLACFLPYHVLLLVRSVWEASCDFAKGVFNAYHFSLLLTSFNCVADPVLYCFVSETTHRDLARLRGACLAFLTCSRTGRAREAYPLGAPEASGKSGAQGEEPELLTKLHPAFQTPNSPGSGGFPTGRLA

Variants of B1 are the subject of series [1]. As to the kind of experiment: cAMP reporter score (Enrich2 score, wild type = 0); higher = more signal; HEK293T, FACS bins.
In series [2] the parent is B1. Description: surface expression score (Enrich2 score, wild type = 0); higher = more signal; HEK293T, FACS bins.

The least precise scores are not listed. Two further conditions of the source, in which the scores hardly spread, are not listed. Read del as a deletion of the residues named and ins as an insertion between two positions. For part of these data: The concentration of ogerin is not given here.

As to C279Q, the cAMP reporter score was -0.339 in series [1] (pH 5.5); -0.085 in series [1] (pH 6); -1.86 in series [1] (pH 6, modulator: ogerin); -1.1 in series [1] (pH 6.5, modulator: ogerin). For the same variant, the surface expression score in series [2] was -2.82.

C279K: the cAMP reporter score is -1.95 in series [1] (pH 5.5); 0.147 in series [1] (pH 6); -0.351 in series [1] (pH 6, modulator: ogerin); -1.04 in series [1] (pH 6.5, modulator: ogerin). Also, in series [2], the surface expression score is -0.735.

For the variant C279D, the cAMP reporter score in series [1] (pH 5.5) is -1.05; in series [1] (pH 6), -1.91; in series [1] (pH 6, modulator: ogerin) it was -1.37; in series [1] (pH 6.5, modulator: ogerin), -1.27. Further, the surface expression score in series [2] is -1.79.

Consider C279I, for which the cAMP reporter score in series [1] (pH 5.5) is -0.158; in series [1] (pH 6) it was -0.684; in series [1] (pH 6, modulator: ogerin), -0.621; in series [1] (pH 6.5, modulator: ogerin) it was -0.901. Moreover, in series [2], the surface expression score was -0.723.

On to C279_V280insGS, for which the cAMP reporter score is -1.78 in series [1] (pH 5.5); -0.742 in series [1] (pH 6); -2.2 in series [1] (pH 6, modulator: ogerin); -1.08 in series [1] (pH 6.5, modulator: ogerin). In addition, in series [2], the surface expression score is -2.02.

As for S276_N278del, the cAMP reporter score was -1.32 in series [1] (pH 5.5); -0.89 in series [1] (pH 6); -2.13 in series [1] (pH 6, modulator: ogerin); -1.29 in series [1] (pH 6.5, modulator: ogerin). The surface expression score in series [2] was -2.29.

S276del: the cAMP reporter score in series [1] (pH 5.5) is -1.74; in series [1] (pH 6) it was -1.2; in series [1] (pH 6, modulator: ogerin), -1.62; in series [1] (pH 6.5, modulator: ogerin), -1.41. Further, in series [2], the surface expression score was -2.5.

For C279_V280insG, the cAMP reporter score in series [1] (pH 5.5) is -0.828; in series [1] (pH 6) it was -0.876; in series [1] (pH 6, modulator: ogerin), -0.33; in series [1] (pH 6.5, modulator: ogerin), -0.965. In series [2], the surface expression score is -2.47.

For V284_L285insGS, the cAMP reporter score was -1 in series [1] (pH 5.5); 0.052 in series [1] (pH 6); -1.46 in series [1] (pH 6, modulator: ogerin); -0.515 in series [1] (pH 6.5, modulator: ogerin). For the same variant, the surface expression score in series [2] was -1.38.

For F277R, the cAMP reporter score in series [1] (pH 5.5) was -1.63; in series [1] (pH 6) it was -0.665; in series [1] (pH 6, modulator: ogerin), -0.352; in series [1] (pH 6.5, modulator: ogerin), -0.557. In addition, the surface expression score in series [2] was -2.62.

In the case of F277M, the cAMP reporter score is 0.528 in series [1] (pH 5.5); -0.348 in series [1] (pH 6); 0.415 in series [1] (pH 6, modulator: ogerin); -0.683 in series [1] (pH 6.5, modulator: ogerin). The surface expression score in series [2] was 1.17.

As to F277C, the cAMP reporter score in series [1] (pH 5.5) is -1.51; in series [1] (pH 6), -1.18; in series [1] (pH 6, modulator: ogerin) it was -1.15; in series [1] (pH 6.5, modulator: ogerin), -1.17. The surface expression score in series [2] was -1.07.

As to F277E, the cAMP reporter score in series [1] (pH 5.5) was -1.68; in series [1] (pH 6) it was -1.44; in series [1] (pH 6, modulator: ogerin), -1.22; in series [1] (pH 6.5, modulator: ogerin) it was -0.737. In addition, the surface expression score in series [2] was -2.6.

On to F277T, for which the cAMP reporter score in series [1] (pH 5.5) is -0.953; in series [1] (pH 6) it was -0.473; in series [1] (pH 6, modulator: ogerin), -1.33; in series [1] (pH 6.5, modulator: ogerin) it was -0.85. In addition, the surface expression score in series [2] is -0.317.

In the case of F277A, the cAMP reporter score in series [1] (pH 5.5) is -0.817; in series [1] (pH 6) it was -0.071; in series [1] (pH 6, modulator: ogerin), -1.56; in series [1] (pH 6.5, modulator: ogerin), -0.95. Besides, in series [2], the surface expression score was -0.768.

Take F277W: the cAMP reporter score in series [1] (pH 5.5) was 0.486; in series [1] (pH 6, modulator: ogerin), 0.68; in series [1] (pH 6.5, modulator: ogerin), 0.367. Moreover, the surface expression score in series [2] was -1.51.

As for F277K, the cAMP reporter score is -2.28 in series [1] (pH 5.5); -1.1 in series [1] (pH 6); -1.12 in series [1] (pH 6.5, modulator: ogerin). Also, the surface expression score in series [2] is -2.

Consider F277Q, for which the cAMP reporter score in series [1] (pH 5.5) is -1.74; in series [1] (pH 6), -1.07; in series [1] (pH 6, modulator: ogerin), -1.29; in series [1] (pH 6.5, modulator: ogerin), -0.79. Moreover, the surface expression score in series [2] was -2.71.

Take F277D: the cAMP reporter score in series [1] (pH 5.5) was -1.41; in series [1] (pH 6), -1.3; in series [1] (pH 6, modulator: ogerin), -1.6; in series [1] (pH 6.5, modulator: ogerin), -0.954. The surface expression score in series [2] was -2.41.

F277I: the cAMP reporter score is 0.367 in series [1] (pH 5.5); 0.172 in series [1] (pH 6); 0.347 in series [1] (pH 6, modulator: ogerin); 0.086 in series [1] (pH 6.5, modulator: ogerin). In addition, the surface expression score in series [2] stood at 0.083.

For the variant F277Y, the cAMP reporter score in series [1] (pH 5.5) is 0.303; in series [1] (pH 6) it was 0.166; in series [1] (pH 6, modulator: ogerin) it was -0.615; in series [1] (pH 6.5, modulator: ogerin) it was -0.7. The surface expression score in series [2] is -1.16.

Take F277S: the cAMP reporter score in series [1] (pH 5.5) is -0.875; in series [1] (pH 6), -1.52; in series [1] (pH 6, modulator: ogerin), -1.33; in series [1] (pH 6.5, modulator: ogerin), -1.38. Moreover, in series [2], the surface expression score is -2.01.

In the case of F277V, the cAMP reporter score stood at 2.08 in series [1] (pH 5.5); 0.467 in series [1] (pH 6); 1.54 in series [1] (pH 6, modulator: ogerin); 1.65 in series [1] (pH 6.5, modulator: ogerin). In addition, the surface expression score in series [2] was found to be 0.607.

On to F277L, for which the cAMP reporter score was found to be 0.684 in series [1] (pH 5.5); 1.65 in series [1] (pH 6); 0.999 in series [1] (pH 6, modulator: ogerin); 0.884 in series [1] (pH 6.5, modulator: ogerin). Also, the surface expression score in series [2] was found to be 1.49.

As for F277G, the cAMP reporter score in series [1] (pH 5.5) is 0.105; in series [1] (pH 6), -0.052; in series [1] (pH 6, modulator: ogerin), -0.325; in series [1] (pH 6.5, modulator: ogerin), -0.161. Also, the surface expression score in series [2] was -1.74.

Regarding F277N, the cAMP reporter score in series [1] (pH 5.5) is -1.97; in series [1] (pH 6, modulator: ogerin), -0.821; in series [1] (pH 6.5, modulator: ogerin), -1.65. In addition, the surface expression score in series [2] was -1.67.

In the case of F277H, the cAMP reporter score in series [1] (pH 5.5) is -1.5; in series [1] (pH 6), -0.482; in series [1] (pH 6, modulator: ogerin) it was -2.17; in series [1] (pH 6.5, modulator: ogerin) it was -1.24. Besides, in series [2], the surface expression score is -2.57.

With F277P, the cAMP reporter score is -1.22 in series [1] (pH 5.5); -0.439 in series [1] (pH 6); -0.824 in series [1] (pH 6, modulator: ogerin); -0.983 in series [1] (pH 6.5, modulator: ogerin). Also, the surface expression score in series [2] is -1.9.

On to N278_C279insGS, for which the cAMP reporter score is -2.03 in series [1] (pH 5.5); -1.09 in series [1] (pH 6); -0.815 in series [1] (pH 6, modulator: ogerin); -1.24 in series [1] (pH 6.5, modulator: ogerin). The surface expression score in series [2] is -2.08.

Regarding A281S, the cAMP reporter score was 0.715 in series [1] (pH 5.5); -1.47 in series [1] (pH 6); -0.179 in series [1] (pH 6, modulator: ogerin); -1.02 in series [1] (pH 6.5, modulator: ogerin).

Take A281M: the cAMP reporter score in series [1] (pH 5.5) is -0.435; in series [1] (pH 6, modulator: ogerin) it was -0.563; in series [1] (pH 6.5, modulator: ogerin) it was -0.989. Further, the surface expression score in series [2] was -0.255.

Values taken from the GPR68 mutational scans of Howard et al. (2025).
